Data published in the supplement of paper PMC10126150.
Values marked as one replicate rest on one cluster of the flow cell; about a third of the high ones do not repeat.

Test system: ATP
Experiment: switch fluorescence ratio, 500 uM ATP over buffer (Cy3 cluster intensity, sum of 5 cycles each) (fold (ratio)); higher = stronger signal-on switching upon ATP binding; sequences stand for … in TCGTCGGCAGCGTCAGATGTGTATAAGAGACAGTTTTTTTTTTTTTTTTTTTTTTTTT…TC
Conditions: aptamer strand: ATP DNA aptamer (quencher-CACCTGGGGGAGTATTGCGGAGGAAGG + anchor), 100 nM annealed; ATP concentration: 500 uM; one replicate
Method in brief: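 Cy3-labelled switching-strand clusters on a modified Illumina MiSeq flow-cell were annealed to 100 nM quencher-labelled ATP aptamer and imaged first in selection buffer, then after 15 min with 500 uM ATP at 22 °C. NaOH stripping and re-annealing separated each of five buffer/ATP cycles, and clusters outside 100-1000 RFU were excluded. The fluorescence ratio sums target-cycle Cy3 intensity over buffer-cycle Cy3 intensity per cluster and averages it per switch-domain sequence.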
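Also: ATP exposure 15 min at 22 °C before imaging.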

Sequence	switch fluorescence ratio
ATGGTTGTT	1.04
TATTCCTGTA	0.994
GCCGGTCCGG	1.02
ACGTTCTTAT	1
TAGCTGTATC	1.05
GTGTTGATTG	0.98
TCCTGTAATA	1.62
GAAGGCAGTT	1.01
GAAAGGGCG	1.02
ACGGCTTGAT	1.03
ATCTAAGT	0.976
ATCACATTTC	0.976
TTGACATCTA	1.08
CGACCAGGGC	1.52
TCGCCTGAAA	1.01
GTGTACCCTA	1.05
GATACTGCGA	1.05
ATTTTTCACT	1
GGTAGACTCC	1.12
TTCGAATTTA	0.937
ATGGCTTGCG	0.951
ACCTGTATCT	1.04
CAGACGTTCT	1.04
AACAGGAGCG	0.946
TCCTTCTCAT	1.13
TTGCGCCGGG	0.959

Sequence	switch fluorescence ratio
GATGAGTTAA	1.03
CTAGGACACT	1.03
GCGGATAAAC	1.04
CTATGAAGA	1.04
AATAGGCCGG	0.976
TACCCCAGCT	1.14
AAGTTGGTC	0.971
CCTATGGCCA	1.02
AGGAATGGGT	0.996
ACTTATTCAA	1.02
CTAATCGAAA	0.974
CGAGTCGGTG	1.02
TCACTCTACG	1.31
GGAATGAAAA	1
TAATGGTGGA	1.02
CGGAGGGTAG	1.01
ATAAAACTGG	1.03
TATGATGCAG	0.99
CTTTTATCGT	0.985
AGTTGGCTA	1.03
CATGCCAAC	1.01
AATTAAGCAT	0.99
TAACCAGGAG	1.12
CGGTCTAAGT	0.985
AAAAGAAATT	1.04
AATCAGTGAG	1.02

Sequence	switch fluorescence ratio
TCACTGCTTA	1.07
AACTGTTCCG	1.02
AGTTTTGAGT	0.99
TTGGTACATA	1.06
TCGTTCAATG	0.952
AGGTTCCGAT	0.991
CCCTTGCAAC	3.74
CGGTGATTAC	1.3
AGTTTGGAGT	0.994
TGTCTTTTCG	0.995
GAGCCGCGCA	0.996
AAGCGGTTAG	1
GTACGCAGCA	1.59
CGTAATAGGA	1.56
AGGAGTCTA	1.01
AGGTCTTTTT	0.969
AGGAGCTTTG	1.02
AAAATTTCG	0.997
AACCGGGCTT	1.02
CCTGTCGTAA	3.45
CAATTTTAAC	1.02
ACTGGCCCTC	0.988
CGAATATCGG	0.986
CTGTAGAGGA	1.01
TTATCGGTCC	0.994
TTGATTGTAA	1

Sequence	switch fluorescence ratio
AAGATGCGTT	0.987
CCTAGATAGA	1.04
GCGCCGGGCC	1.02
AACTGGCTGA	1
GCAACGGCCA	1.03
TGATCTTCT	0.993
CATAGGTCCC	0.975
GGTAGGAGT	0.97
AGTCCCGCTT	1.16
ATTAACAAAA	0.91
ATAATATGGG	0.995
GTGTATTGGA	1
GTCATTCGG	0.971
CCGGCGCAT	2.49
ATCTTTCTTT	0.96
TTCCTTGTT	0.945
CAGAGCCAT	1.07
AGGTTAGATT	1.01
AATACGTGTA	1
CCAGCTTCTT	1.09
CACCCGTTCC	1.47
CAGATTTTGT	1.01
AAGCTATTTT	1
TGATTCCTCC	1.97
GTGGAGGAAT	1.02
CTTGTTATTT	0.971

Sequence	switch fluorescence ratio
TCGTAGTATA	1.1
GTTACTGGCT	0.984
CTATTCAACG	1.03
GAATCAGCCC	0.984
TAGAGAGCC	0.998
GGATCGGCCT	1.01
GTGTTCTTCA	0.976
TGTTTGC	1.02
CAGGAGGTCA	0.96
TTTGAATCTG	1.01
AGTCTAGGAA	0.988
CCGCAGGTTC	4.39
ATGATAGAT	0.999
GCATGATGAG	1.02
TCGAGGTATG	0.996
TCCGAAGAGT	1.24
TCTTAAAGAG	1.01
ATATACTAAC	1.17
TCTATGTGCA	1.01
ATATATCATG	1.04
CGGTCGTCTG	1.01
ATTACTCTG	1.09
CAAGTCCACT	1.03
CTGGGAGTAT	1.03
CAGTTAGTAA	1.01
GAGATCCCAA	1.01

Sequence	switch fluorescence ratio
GCGGGTGCAT	0.998
CGCCAAAGTA	1.01
AATCATGGTG	1.04
GTAGTGACAG	1.02
TAAGGCTATG	0.996
CAGCCAGTTA	1.01
CACTGGCTCT	1.01
AATTATTCGG	1.03
GCTTATTGGC	1
ATACGCCAAA	1.13
ACATTTGA	1.01
GTCGACACCT	1.08
GGAGTGTAAT	1
TCTAGGGTG	1.61
GAGATAATAT	0.982
TCCGGAAAGG	1.32
AGCCTGGACC	1.04
ACTTTAATAC	1.65
GCCATGATTC	0.958
ATCCTAATGT	1.03
TTGGGCTCGT	1.02
GCTTAAACAT	1.01
CCAAAGTGGG	1.02
CGTTATATAG	1.03
TTCCGTATAT	1.57
ACTTGTCTAT	1

Sequence	switch fluorescence ratio
AACAAAACAC	1.15
TGTAGTCGG	0.955
TTATGCTGAG	0.965
GCGTTAAGAC	1.41
CCAATTCGGT	1.05
GCCTTGTTTG	0.99
TGCTCTATGG	0.952
GGTGATCGGT	0.949
CTGGTACCT	1.07
GGTAACTATT	1.03
CGTCAGTATA	1.02
GCGTTTCCA	0.948
GGTGATGCGA	0.993
GAGTTAAGCT	0.955
GTTACTACTC	1.06
TGCTGCTGC	0.924
CACCTTTTCC	1.28
TCCAAGTTCC	1.06
CACCGTTATA	1.56
AAGCTTAGCA	0.988
TAATGTTCTA	0.965
ATCATAACAT	1.01
TTCTGGGATT	1.01
GCGCCGGCTA	1.02
TTGATAGCTG	1.03
TTGCGTGCTG	0.985

Sequence	switch fluorescence ratio
CTGCTTAGGG	1.01
CGACACAGTC	1.12
AAATTTAAA	1.01
CGCGTGCACA	1.11
CATCCTTGCC	1.21
GACTAATGAG	0.962
TATTTGTGAA	1
CTGTCCGGCA	1.05
TATAGCAGCA	1.02
GGTCGGTCTG	1.05
CCGAACATAA	3.69
ATAGCTATGG	1.08
AAATACATCA	0.996
CGACCACTTG	1.02
GGTTAACCAA	1
ATTAGCCTCC	1.15
TTATCGACTC	0.945
AGGGCGGCCG	0.959
CGTCTTCCGT	0.975
